Experimental data reported in PubChem BioAssay (NCI).
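Compound exposure: 48 hours, 5 concentrations, 96-well plates. Abbreviation: GI50, concentration required for 50% inhibition of growth. TGI: total growth inhibition.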

Test system: NCI-H322M lung
Test: NCI anticancer screen, dose series, 48 h

SMILES	TGI [µM]	GI50 [µM]
O=S(=O)(O)Nc1ccc(-c2nc3ccccc3s2)cc1Cl	> 100	–
Cc1nc(Nc2ccc(F)c(Cl)c2)sc1C(=O)O	9.71	2.85
CN(C)CCNC(=O)c1cc([N+](=O)[O-])ccn1	87.2	–
O=[N+]([O-])C(=C/C1CCCCC1)/C(=C\C1CCCCC1)[N+](=O)[O-]	30.2	–
CNS(=O)(=O)NN(C)S(=O)(=O)c1ccc(Br)cc1	> 100	–
CC1(C)OC[C@@]2([C@@H]3CC[C@@H](C3)C2(C)C)N1O	> 100	–
N#Cc1nc(Cc2ccccc2)oc1N	> 100	–
O/N=C1\CC2(N3CCOCC3)CCC1(Cc1ccccc1)CC2	> 100	–
